# Source: PubChem BioAssay AID1030 (National Center for Advancing Translational Sciences (NCATS), 2008)
# Out of some 220,000 compounds screened, about 16,000 (7.3%) were called active. Inconclusive results, whose numbers are uncertain, are shown with a selection of clear calls. Calls come from the whole dose curve; as a rule, active = well fitted inhibition curve with a large enough effect (not every such curve was filed as active); inconclusive = small, poorly fitted or top-dose-only effect, or another doubt; inactive = no such curve, though single readings can be large or run the other way. No potency is given beside an inconclusive call; the fits are too rough.
# Biological target: Aldehyde dehydrogenase 1A1 (Homo sapiens) (UniProt P00352)
# UniProt P00352, sequence (P00352 whole entry, looked up): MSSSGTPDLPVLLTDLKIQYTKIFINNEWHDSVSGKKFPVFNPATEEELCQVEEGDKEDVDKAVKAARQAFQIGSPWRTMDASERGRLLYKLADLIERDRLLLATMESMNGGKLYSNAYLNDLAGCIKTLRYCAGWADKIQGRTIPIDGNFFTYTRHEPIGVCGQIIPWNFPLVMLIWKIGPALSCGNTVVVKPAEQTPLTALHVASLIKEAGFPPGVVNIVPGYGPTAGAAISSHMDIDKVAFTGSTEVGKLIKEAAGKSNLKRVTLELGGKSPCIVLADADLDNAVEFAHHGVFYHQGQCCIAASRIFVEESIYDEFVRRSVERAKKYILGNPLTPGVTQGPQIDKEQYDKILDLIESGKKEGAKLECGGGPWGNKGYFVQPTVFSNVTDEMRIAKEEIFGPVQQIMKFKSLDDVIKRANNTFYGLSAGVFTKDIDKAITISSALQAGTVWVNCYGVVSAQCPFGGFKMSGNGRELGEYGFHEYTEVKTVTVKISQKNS
# Assay: qHTS Assay for Inhibitors of Aldehyde Dehydrogenase 1 (ALDH1A1);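 for activity, negative = inhibition: plate controls were no enzyme wells and a reference inhibitor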
# Settings: Purified ALDH1A1, NADH fluorescence, propionaldehyde substrate; series mostly up to 75.3 µM; activity, negative = inhibition: at the top concentration
# Potency is the fitted concentration of half-maximal effect; tags give direction and shape of the fitted curve.
Structure (SMILES),"activity, negative = inhibition",Potency
Cc1cccc(C)c1NC(=O)C(c1ccccc1)N1CCOCC1 (stereo not drawn),inactive: 7.89%,–
O=c1c(CN2CCN(c3ccccn3)CC2)coc2ccccc12,–,active: 25.1 µM
Cc1ccc(Sc2c(C)[nH]n(C(C)(C)C)c2=O)cc1,inactive: 3.05%,–
Cc1c(C(=O)Nc2ccccc2)sc2nc3n(c(=O)c12)CCCCC3,–,"inconclusive [inhibitor, single point]"
CC(C)Cn1c(=O)c(-[n+]2ccccc2)c([O-])c2ccccc21,–,active: 2.82 µM
O=C(NCCC(c1ccccc1)c1ccco1)c1cccs1 (stereo not drawn),–,"inconclusive [inhibitor, single point]"
COc1ccc(C(=O)NCc2cc(C)nc3ccccc23)cc1,inactive: 4.68%,–
CC(C)CCn1c(SCCc2ccccc2)nc2c1c(=O)[nH]c(=O)n2C,–,active: 6.31 µM
O=C(Nc1nccs1)c1ccc(COc2ccc(F)cc2)o1,–,"inconclusive [inhibitor, single point]"
Cc1ccc(-n2c(O)c(C=Nc3cc(C)on3)c3ccccc3c2=O)c(C)c1,–,"inconclusive [inhibitor, single point]"
COC(=O)C(C)Sc1ccc2nnc(CCNS(=O)(=O)c3ccccc3)n2n1 (stereo not drawn),–,"inconclusive [inhibitor, single point]"
FC(F)(F)c1cc(Oc2ccc(Cl)cc2)ncc1-c1nnc(-c2ccc(Cl)cc2)o1,–,"inconclusive [inhibitor, single point]"
O=C(Oc1coc(CSc2ncccn2)cc1=O)c1ccccc1[N+](=O)[O-],–,"inconclusive [inhibitor, partial curve, poor fit]"
O=[N+]([O-])c1ccccc1/C=N/NC1=NCCCCC1,–,"inconclusive [inhibitor, single point]"
COc1ccccc1Nc1nc(N)nc(CN2CC(C)CC(C)C2)n1 (stereo not drawn),inactive: -0.979%,–
CC1CCN(C(=S)c2ccc([N+](=O)[O-])cc2)CC1,–,"inconclusive [inhibitor, single point]"
Cc1cc(C)n2nc(C(=O)Nc3ccc(S(=O)(=O)N4CCCCC4)cc3)nc2n1,–,"inconclusive [inhibitor, single point]"
O=C(CSc1nnc2c(Cl)cc(C(F)(F)F)cn12)N(Cc1ccccc1)Cc1ccccc1,–,"inconclusive [inhibitor, partial curve]"
O=C(/C=C/NCC(=O)c1ccccc1)c1ccc(Br)cc1,–,active: 7.94 µM
CCOC(=O)CNc1c(-c2ccc(F)cc2)nc2cnccn12,–,"inconclusive [inhibitor, partial curve]"
CC#CCOC(=O)C1=CCCN(C)C1,–,inactive
Cc1noc(C)c1C(=O)N1CCC2(CC1)CN(c1ccccn1)C2,–,"inconclusive [inhibitor, single point]"
O=C1c2ccccc2NC(c2ccco2)N1/N=C/c1ccco1 (stereo not drawn),–,"inconclusive [inhibitor, single point]"
c1ccc(-c2csc(Nc3cccnc3)n2)nc1,inactive: 2.85%,–

Structure (SMILES),"activity, negative = inhibition",Potency
COc1ccc(C(=O)N2CCC3(CC2)CN(C(=O)Nc2ccccc2)C3)cc1,inactive: 1.69%,–
Cc1cc(/C=C(\C#N)C(=O)NCc2ccco2)c(C)[nH]1,–,"inconclusive [inhibitor, single point]"
Cc1ccccc1Cn1cccc1/C=C1/C(=N)N2C=CSC2=NC1=O,inactive: 6.61%,–
O=C(NCc1ccco1)C(=O)NCC1OCCCN1S(=O)(=O)c1ccc(F)cc1 (stereo not drawn),–,"inconclusive [inhibitor, single point]"
COc1ccc(-c2nsc3c(SCC(=O)Nc4cc(C)ccc4C)ncnc23)cc1,inactive: 7.03%,–
CN(C)C(CN1C(=O)C2CC=CCC2C1=O)c1cn(C)c2ccccc12 (stereo not drawn),–,"inconclusive [inhibitor, single point]"
CCOC(=O)c1[nH]c2ccc(OC)cc2c1NC(=S)N1CCN(c2cccc(Cl)c2)CC1,–,"inconclusive [inhibitor, partial curve]"
COc1ccc(Oc2nc(Oc3ccc(OC)cc3)nc(Oc3ccc(OC)cc3)n2)cc1,–,"inconclusive [inhibitor, single point]"
CC(C)n1c(CSCc2ccc(Cl)cc2Cl)n[nH]c1=S,–,"inconclusive [inhibitor, full curve]"
Cc1cc(C(=O)N/N=C/c2cccnc2)c(C)o1,inactive: 6.32%,–
COc1ccc(-c2nc3cnc(Nc4cccc(OC)c4)nc3n(Cc3cccs3)c2=O)cc1,–,"inconclusive [inhibitor, single point]"
N#Cc1cc(NCC2CCCO2)c([N+](=O)[O-])cc1C#N (stereo not drawn),inactive: 0.685%,–
Cc1scc(C(=O)Nc2ccon2)c1-c1ccccc1,–,active: 28.2 µM
Cc1ccc(-c2nc3cccnc3o2)cc1NC(=O)COc1ccc(C(C)(C)C)cc1,–,"inconclusive [inhibitor, single point]"
CCOC(=O)C1C(=O)C=C(C)C(C(=O)OCC)C1c1ccc(OC)cc1 (stereo not drawn),–,"inconclusive [inhibitor, single point]"
O=C(NCCCN1CCOCC1)c1csc2c1CCCC2,–,"inconclusive [inhibitor, single point]"
Cc1noc(C(=O)N2CC3(C)CC2CC(C)(C)C3)c1Cl (stereo not drawn),–,active: 17.8 µM
Cc1cc(C)n(C(=O)Cn2nc([N+](=O)[O-])c(Br)c2C)n1,inactive: 0.184%,–
Cc1cc2cc3c(cc2nc1SCC(=O)N1CCN(C(=O)c2ccco2)CC1)OCO3,–,"inconclusive [inhibitor, partial curve, poor fit]"
O=C(Nc1nnc(-c2ccc3c(c2)CCCC3)o1)c1c(F)cccc1F,–,"inconclusive [inhibitor, single point]"
O=C(OCC(=O)N1CCCC1)c1ccc(S(=O)(=O)Nc2ccccc2)cc1,inactive: -5.16%,–
COC(CC(=O)NNC(=S)Nc1ccc(Cl)cc1)OC,inactive: -4.06%,–
O=C(O)CCn1c(SCc2cccc3ccccc23)nc2ccccc21,inactive: 5.74%,–
CN(C)c1ncnc2c1NC1=C(S2)C(=NCCCC(=O)O)CC(C)(C)C1,–,"inconclusive [inhibitor, partial curve]"
